# Experimental data reported in PubChem BioAssay AID504333 (National Center for Advancing Translational Sciences (NCATS), 2011).
# In all, about 360,000 compounds went through this assay and about 16,000 (4.4%) were called active. The inconclusive results got no clear call from the source; some entries with a clear call stand among them for comparison. Calls follow the shape of the dose curve; as a rule, active = well fitted inhibition curve with a large enough effect; inconclusive = small, poorly fitted or top-dose-only effect; inactive = no such curve, though single readings can be large or run the other way. Potencies beside an inconclusive call are fits to weak or partial responses and may not hold up.
# Target: Bromodomain adjacent to zinc finger domain protein 2B (Homo sapiens) (UniProt Q9UIF8)
# Chain of UniProt Q9UIF8 (Q9UIF8 whole entry, looked up, the tested form may be a part): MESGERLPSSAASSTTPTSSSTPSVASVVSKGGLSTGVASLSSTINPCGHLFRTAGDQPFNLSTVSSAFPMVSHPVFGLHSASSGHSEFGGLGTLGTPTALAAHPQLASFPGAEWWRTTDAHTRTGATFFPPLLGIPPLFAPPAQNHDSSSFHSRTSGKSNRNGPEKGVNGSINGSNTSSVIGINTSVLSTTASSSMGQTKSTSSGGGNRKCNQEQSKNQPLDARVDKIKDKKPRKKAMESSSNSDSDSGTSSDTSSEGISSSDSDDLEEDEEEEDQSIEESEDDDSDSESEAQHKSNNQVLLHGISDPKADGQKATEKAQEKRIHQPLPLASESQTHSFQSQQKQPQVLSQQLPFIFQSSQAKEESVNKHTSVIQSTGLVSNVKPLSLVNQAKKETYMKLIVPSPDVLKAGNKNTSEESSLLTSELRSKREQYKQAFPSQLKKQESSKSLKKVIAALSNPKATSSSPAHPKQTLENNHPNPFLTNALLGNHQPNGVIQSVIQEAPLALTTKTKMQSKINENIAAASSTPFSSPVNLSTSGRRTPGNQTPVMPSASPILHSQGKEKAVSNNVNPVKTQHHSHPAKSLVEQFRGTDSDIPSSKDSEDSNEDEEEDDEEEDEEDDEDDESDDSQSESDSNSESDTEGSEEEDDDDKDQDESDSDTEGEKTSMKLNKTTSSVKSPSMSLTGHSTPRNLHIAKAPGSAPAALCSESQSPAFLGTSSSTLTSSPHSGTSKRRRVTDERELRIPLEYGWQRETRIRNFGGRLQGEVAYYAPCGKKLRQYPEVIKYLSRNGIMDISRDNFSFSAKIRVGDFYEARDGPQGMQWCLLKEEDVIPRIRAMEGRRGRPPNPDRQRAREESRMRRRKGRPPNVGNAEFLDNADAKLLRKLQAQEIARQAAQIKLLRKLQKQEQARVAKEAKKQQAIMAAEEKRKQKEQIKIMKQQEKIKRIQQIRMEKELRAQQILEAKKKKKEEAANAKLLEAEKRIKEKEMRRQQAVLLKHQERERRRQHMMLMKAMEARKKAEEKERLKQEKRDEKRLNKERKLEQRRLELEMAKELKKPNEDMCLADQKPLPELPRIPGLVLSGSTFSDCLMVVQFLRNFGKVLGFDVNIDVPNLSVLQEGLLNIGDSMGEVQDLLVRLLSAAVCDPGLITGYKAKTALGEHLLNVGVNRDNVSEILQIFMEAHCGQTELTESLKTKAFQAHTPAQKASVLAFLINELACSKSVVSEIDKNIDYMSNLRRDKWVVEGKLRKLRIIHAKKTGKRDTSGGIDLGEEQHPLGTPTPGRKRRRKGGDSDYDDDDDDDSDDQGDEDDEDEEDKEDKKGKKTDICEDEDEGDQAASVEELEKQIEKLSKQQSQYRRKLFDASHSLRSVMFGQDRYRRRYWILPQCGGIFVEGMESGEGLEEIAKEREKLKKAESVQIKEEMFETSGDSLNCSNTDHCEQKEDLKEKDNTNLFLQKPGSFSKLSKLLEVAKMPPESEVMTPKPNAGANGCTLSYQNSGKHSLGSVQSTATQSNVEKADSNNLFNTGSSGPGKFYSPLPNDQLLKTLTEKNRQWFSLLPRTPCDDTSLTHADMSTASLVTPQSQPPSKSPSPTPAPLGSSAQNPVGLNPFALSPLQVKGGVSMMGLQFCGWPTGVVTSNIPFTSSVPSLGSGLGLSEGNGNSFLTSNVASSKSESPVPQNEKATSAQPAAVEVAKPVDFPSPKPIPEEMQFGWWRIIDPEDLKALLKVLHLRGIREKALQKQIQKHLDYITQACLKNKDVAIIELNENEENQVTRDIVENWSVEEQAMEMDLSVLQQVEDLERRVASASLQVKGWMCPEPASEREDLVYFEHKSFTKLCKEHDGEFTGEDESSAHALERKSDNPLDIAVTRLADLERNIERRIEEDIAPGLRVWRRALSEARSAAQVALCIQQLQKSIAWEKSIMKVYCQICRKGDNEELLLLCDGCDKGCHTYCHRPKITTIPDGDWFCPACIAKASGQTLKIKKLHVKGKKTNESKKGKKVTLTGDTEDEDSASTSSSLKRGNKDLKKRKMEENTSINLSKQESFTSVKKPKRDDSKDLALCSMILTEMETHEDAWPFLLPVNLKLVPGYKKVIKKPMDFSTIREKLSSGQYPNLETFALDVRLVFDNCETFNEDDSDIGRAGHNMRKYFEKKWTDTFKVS
# Experiment: qHTS Assay for Inhibitors of BAZ2B; also: nearly all actives have a fitted effect of over 60% in size
# Conditions: AlphaScreen BAZ2B-H3K14Ac peptide displacement; activity change, negative = inhibition: at 114 µM (top of the series)
# Procedure, shortened: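 Multi-concentration screen (max 110 uM) measuring displacement of acetylated histone H3 peptide from BAZ2B by AlphaScreen, using 50 nM protein, 50 nM peptide and 10 ug/mL streptavidin donor plus Ni-chelate acceptor beads.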
# % is scaled to controls: 0 for no effect and ±100 for the full control effect; potency is read from the fitted curve at half-maximal effect; tags tell the direction and shape of the fitted curve.
SMILES,Potency,"activity change, negative = inhibition"
Cc1cccc(C)c1NC1=NCCCS1,"inconclusive: 100 µM [inhibitor, partial curve]",
O=C(Nc1ccccc1)N(Cc1ccc2c(c1)OCO2)C1CCN(Cc2ccccc2)CC1,"inconclusive: 50.1 µM [inhibitor, partial curve]",
CN(C)c1ccc(/C=C/C=C/c2sc3ccccc3[n+]2C)cc1,"inconclusive: 44.7 µM [inhibitor, partial curve]",
Cc1ccc(N2C(=O)NC(=O)/C(=C/c3ccoc3)C2=O)cc1,active: 7.94 µM,
COc1cccc(N2CCN(C(=O)C3CCCN(S(=O)(=O)c4ccc5c(c4)oc(=O)n5C)C3)CC2)c1 (configuration not stated),,inactive: -14.2%
O=C(Cc1coc2cc3c(cc12)CCC3)OCC(=O)N1CCCC1=O,"inconclusive: 79.4 µM [inhibitor, single point]",
CCCCC(=O)N/N=C/c1c(O)n(CCc2ccccc2)c(=O)[nH]c1=O,"inconclusive: 79.4 µM [inhibitor, single point]",
O=C(/C=C/c1ccc2c(c1)OCO2)c1c(O)n(CCC2=CCCCC2)c(=O)[nH]c1=O,,inactive: 9.47%
COc1ccc(/C=C2\C(=O)NC(=S)N(C)C2=O)cc1C,"inconclusive: 39.8 µM [inhibitor, partial curve]",
Cn1cc(C(=O)NP(=O)(N2CCOCC2)N2CCOCC2)c2ccccc21,"inconclusive: 79.4 µM [inhibitor, single point]",
COC(=O)C1=C(c2ccc(OC(F)(F)F)cc2)C[C@@H]2CC[C@H]1N2C(=O)NCCCOC(C)C,,inactive: -27.6%
CCNC(=O)[C@H]1O[C@@H](n2cnc3c(N)ncnc32)[C@H](O)[C@@H]1O,,inactive: -6.65%
COc1ccc(N2C(=O)NC(=O)/C(=C/c3cccc(OC(=O)c4cccs4)c3)C2=O)cc1Cl,active: 79.4 µM,
COc1ccccc1OCC#CCN1CCCC(C)C1 (configuration not stated),active: 25.1 µM,
CC(C)C1(C)N=C(c2ncccc2C(=O)O)NC1=O (configuration not stated),active: 28.2 µM,
C=CCN1C(=O)/C(=C/c2ccc(N3CCOCC3)o2)C(=O)NC1=S,"inconclusive: 50.1 µM [inhibitor, partial curve]",
COc1ccc(CCNCc2ccncc2)cc1,active: 56.2 µM,
CN1CCN(c2ccc([N+](=O)[O-])c(N3CCCCC3)c2)CC1,"inconclusive: 79.4 µM [inhibitor, single point]",
O=C(O[C@@H]1Cc2c(O)cc(O)cc2O[C@@H]1c1cc(O)c(O)c(O)c1)c1cc(O)c(O)c(O)c1,active: 8.91 µM,
CC[C@H]1CN2CCc3cc(OC)c(OC)cc3[C@@H]2C[C@@H]1C[C@H]1NCCc2cc(OC)c(OC)cc21,"inconclusive: 79.4 µM [inhibitor, single point]",
Cn1c(NN=O)nc2ccccc21,"inconclusive: 63.1 µM [inhibitor, partial curve, poor fit]",
O=c1[nH]c(=O)n(-c2cccc3ccccc23)c(O)c1C=NCCCn1ccnc1,active: 56.2 µM,
Cc1ccc(NC(=O)c2cc(-c3ccccc3)n(CCCN3CCOCC3)c2C)cc1,"inconclusive: 70.8 µM [inhibitor, partial curve]",
CCOP(=O)(c1ccccc1)c1nc(-c2ccc(F)cc2)oc1N1CCCCC1 (configuration not stated),"inconclusive: 89.1 µM [inhibitor, single point]",

SMILES,Potency,"activity change, negative = inhibition"
CS(=O)(=O)N1CCCC(C(=O)N2CCC3(CC2)OCCO3)C1 (configuration not stated),,inactive: -5.02% [at 57.1 µM]
O=c1c2ccccc2nc(/C=C/c2ccccc2F)n1-c1ccccc1O,"inconclusive: 50.1 µM [inhibitor, partial curve]",
CCCCCc1nc2ccccc2c(=O)n1-c1ccc(Cl)cc1[N+](=O)[O-],"inconclusive: 89.1 µM [inhibitor, single point]",
[O-]/[N+](=C/c1cccnc1)c1ccc(Br)cc1,"inconclusive: 44.7 µM [inhibitor, partial curve]",
COc1ccc(Cn2c(O)c(/C=N/NC(=O)c3ccncc3)c(=O)[nH]c2=O)cc1,"inconclusive: 79.4 µM [inhibitor, single point]",
Cc1ccc(C(=O)n2c(N)nc3ccccc32)cc1,"inconclusive: 79.4 µM [inhibitor, partial curve]",
CN(C)C(Cc1ccc(Cl)cc1)C(=O)c1ccccc1 (configuration not stated),,inactive: -6.34%
COc1ccccc1CNCc1cc(OC)c(OC)cc1OC,active: 50.1 µM,
Cc1cccc(-n2c(/C=C/c3ccc([N+](=O)[O-])o3)nc3ccccc3c2=O)c1,"inconclusive: 79.4 µM [inhibitor, partial curve]",
Cc1cc(C=C2C(=O)N(C)C(=S)N(C)C2=O)c(C)n1C1CCCC1,"inconclusive: 39.8 µM [inhibitor, full curve]",
Cc1ccccc1CN1CCN(C(=O)Cc2ccccc2)CC1,active: 25.1 µM,
Cc1oc(-c2ccccc2Cl)nc1CN1C(=O)CN=C(c2ccccc2)c2ccccc21,"inconclusive: 35.5 µM [inhibitor, partial curve]",
COC(=O)c1ccccc1OP(=O)(c1cccc([N+](=O)[O-])c1)c1cccc([N+](=O)[O-])c1,"inconclusive: 70.8 µM [inhibitor, single point]",
CN(C)c1ccc(CN2CCc3nc(N4CCN(c5ccccn5)CC4)ncc3C2)cc1,active: 25.1 µM,
O=C1NS(=O)c2cc([N+](=O)[O-])cc([N+](=O)[O-])c21 (configuration not stated),"inconclusive: 79.4 µM [inhibitor, single point]",
Cc1ccc(-n2c(C)cc(/C=C3/C(=O)NC(=O)N(Cc4ccco4)C3=O)c2C)cc1,active: 35.5 µM,
O=C1NC(=O)N(Cc2ccc(F)cc2)C(=O)/C1=C/c1cccs1,active: 79.4 µM,
COc1ccc(CNC(=O)CSCc2cnn(-c3ccccc3)c2-n2cccc2)cc1OC,active: 28.2 µM,
CCCCn1c(O)c(/C=N/NC(=O)c2ccncc2)c(=O)[nH]c1=S,active: 79.4 µM,
CC1(C)C(=O)CC[C@]2(C)C3C(=O)C=C4[C@H]5C[C@@](C)(C(=O)O)CC[C@]5(C)CC[C@]4(C)[C@]3(C)CC[C@@H]12 (some centres not stated),"inconclusive: 79.4 µM [inhibitor, single point]",
COc1cc(/C=C2\C(=O)NC(=O)N(c3ccc(C)cc3)C2=O)cc(OC)c1O,,inactive: 4.14%
CCN1C(=O)c2c(C)nc3ccccc3c2C1=O,"inconclusive: 89.1 µM [inhibitor, single point]",
Cc1cc(N2CCOCC2)nc2ccc(NC(=O)CCC(=O)N3CCC4(CC3)OCCO4)cc12,"inconclusive: 89.1 µM [inhibitor, single point]",
COc1ccc2c(c1)/C(=C/c1cnc[nH]1)C(=O)N2,active: 50.1 µM,

SMILES,Potency,"activity change, negative = inhibition"
OC(c1ccc(F)cc1)C(c1ccccc1)N1CCOCC1 (configuration not stated),"inconclusive: 89.1 µM [inhibitor, single point]",
Cn1cc(C(=O)Cc2ccccc2)c2ccccc21,,inactive: 12.9%
CC(C)n1c(=O)c(C=Nc2ccc(S(N)(=O)=O)cc2)c(O)n(Cc2ccco2)c1=O,"inconclusive: 70.8 µM [inhibitor, single point]",
CSc1cccc(NC(=O)C2CCN(C(=O)c3cnn(-c4ccccc4)c3-n3cccc3)CC2)c1,"inconclusive: 22.4 µM [inhibitor, full curve]",
COc1ccc(CCNCc2ccc(OC)c(OC)c2OC)cc1,active: 79.4 µM,
O=c1[nH]c(=S)n(-c2ccccc2)c(O)c1/C=N/N1CCCCC1c1cccnc1 (configuration not stated),"inconclusive: 79.4 µM [inhibitor, partial curve]",
O=C1NC(=O)N(CCc2ccc(F)cc2)C(=O)/C1=C/c1cccs1,,inactive: -32.6%
COC(=O)C1=C(C)NC(C)=C(C(=O)OC)C1c1ccccc1[N+](=O)[O-],active: 39.8 µM,
COc1ccc(OC)c(N2C(=O)NC(=O)/C(=C\c3ccc([N+](=O)[O-])s3)C2=O)c1,active: 28.2 µM,
COc1ccc2c(c1)[nH]c1c(C)nccc12,"inconclusive: 89.1 µM [inhibitor, single point]",
CC1(C)C(C=C(Cl)Cl)C1C(=O)OCc1cccc(Oc2ccccc2)c1 (configuration not stated),,inactive: 459%
CC(N)Cc1c[nH]c2cc3c(cc12)OCCO3 (configuration not stated),"inconclusive: 89.1 µM [inhibitor, single point]",
Cc1ccccc1-c1nc(CN2C(=O)CN=C(c3ccccc3)c3ccccc32)c(C)o1,"inconclusive: 17.8 µM [inhibitor, full curve]",
O=C1NC(=O)C(=Cc2ccccc2OCCOc2ccc([N+](=O)[O-])cc2)C(=O)N1,"inconclusive: 89.1 µM [inhibitor, single point]",
CN(C)c1ccc(P(=O)(OC2CCCCC2)C(Nc2ccccc2)c2cccnc2)cc1 (configuration not stated),active: 39.8 µM,
CC(C)c1ccc(N2C(=O)CC(=O)NC2=O)cc1,,inactive: 1.37%
CCN1CCN(c2ccc(N)cc2C)CC1,"inconclusive: 70.8 µM [inhibitor, single point]",
CCN1CCN(Cc2ccc(C)cc2C)CC1,"inconclusive: 79.4 µM [inhibitor, single point]",
O=C1NC(=O)N(c2ccccc2)C(=O)/C1=C\c1ccc([N+](=O)[O-])o1,active: 39.8 µM,
CCn1ccnc1CN1CCCC(C(=O)c2cc(C)c(OC)c(C)c2)C1 (configuration not stated),"inconclusive: 89.1 µM [inhibitor, single point]",
C[N+](C)(C)Cc1ccccc1,,inactive: -7.25%
CCc1ccccc1N1C(=O)NC(=O)/C(=C\c2cc(C)n(C)c2C)C1=O,,inactive: -4.39%
Cc1oc(-c2ccc(Cl)cc2)nc1CS(=O)CC(=O)N1CCC2(CC1)OCCO2 (configuration not stated),"inconclusive: 89.1 µM [inhibitor, single point]",
CCOCCCn1c(N)c(C(=O)Nc2sc3c(c2C(=O)OC)CCCC3)c2nc3ccccc3nc21,"inconclusive: 44.7 µM [inhibitor, partial curve]",
